Test results taken from a collection of fitness landscapes (doi:10.1126/science.1257360).
This is one part of the list.

B1: PhoQ; a variant is named by its letters at X, in order, P23837 (parent)
chain: MKKLLRLFFPLSLRVRFLLATAAVVLVLSLAYGMVALIGYSVSFDKTTFRLLRGESNLFYTLAKWENNKLHVELPENIDKQSPTMTLIYDENGQLLWAQRDVPWLMKMIQPDWLKSNGFHEIEADVNDTSLLLSGDHSIQQQLQEVREDDDDAEMTHSVAVNVYPATSRMPKLTIVVVDTIPVELKSSYMVWSWFIYVLSANLLLVIPLLWVAAWWSLRPIEALAKEVRELEEHNRELLNPATTRELTSLVRNLNRLLKSERERYDKYRTTLTDLTHSLKTPLXXLQXXLRSLRSEKMSVSDAEPVMLEQISRISQQIGYYLHRASMRGGTLLSRELHPVAPLLDNLTSALNKVYQRKGVNISLDISPEISFVGEQNDFVEVMGNVLDNACKYCLEFVEISARQTDEHLYIVVEDDGPGIPLSKREVIFDRGQRVDTLRPGQGVGLAVAREITEQYEGKIVAGESMLGGARMEVIFGRQHSAPKDE

Variants of: B1
Experiment: enrichment ratio after two sorts for PhoP signalling (ratio (wild type AVST 3.29)); higher = more functional
Details: with PhoP (E. coli)

| Variant | enrichment ratio |
| --- | --- |
| RVGC | ≤ 0.25 |
| KMVQ | ≤ 0.25 |
| KHQI | ≤ 0.25 |
| DVDW | ≤ 0.25 |
| KKSS | ≤ 0.25 |
| GWHM | ≤ 0.25 |
| EGDM | ≤ 0.25 |
| ETQR | ≤ 0.25 |
| EFYK | ≤ 0.25 |
| RTAH | ≤ 0.25 |
| TKNN | ≤ 0.25 |
| RPRM | ≤ 0.25 |
| IYHV | ≤ 0.25 |
| QASW | ≤ 0.25 |
| LYDE | ≤ 0.25 |
| PSQP | ≤ 0.25 |
| RGDC | ≤ 0.25 |
| MRGN | ≤ 0.25 |
| PCAP | ≤ 0.25 |
| WTRQ | ≤ 0.25 |
| NRQE | ≤ 0.25 |
| SRPP | ≤ 0.25 |
| GWFF | ≤ 0.25 |
| FVHL | ≤ 0.25 |

| Variant | enrichment ratio |
| --- | --- |
| PATI | ≤ 0.25 |
| WETH | ≤ 0.25 |
| IWTL | ≤ 0.25 |
| RSFH | ≤ 0.25 |
| DMYG | ≤ 0.25 |
| WPKL | ≤ 0.25 |
| DGAA | ≤ 0.25 |
| KHNI | ≤ 0.25 |
| TDWI | ≤ 0.25 |
| TQET | ≤ 0.25 |
| AKAF | 5.84 |
| AAAM | 10.1 |
| GRYW | ≤ 0.25 |
| QGKI | ≤ 0.25 |
| TMPA | ≤ 0.25 |
| YNNK | ≤ 0.25 |
| NMIG | ≤ 0.25 |
| DDDQ | ≤ 0.25 |
| QYRN | ≤ 0.25 |
| NPID | ≤ 0.25 |
| SIWT | ≤ 0.25 |
| VSPS | ≤ 0.25 |
| VRER | ≤ 0.25 |
| FRCC | ≤ 0.25 |

| Variant | enrichment ratio |
| --- | --- |
| RIQQ | ≤ 0.25 |
| RKCK | ≤ 0.25 |
| RHDQ | ≤ 0.25 |
| GIPL | ≤ 0.25 |
| LMPP | ≤ 0.25 |
| NLPF | ≤ 0.25 |
| GNCP | ≤ 0.25 |
| AMQS | ≤ 0.25 |
| MESH | 4.64 |
| DSYE | ≤ 0.25 |
| HDNK | ≤ 0.25 |
| WNTH | ≤ 0.25 |
| KMFK | ≤ 0.25 |
| VTQD | ≤ 0.25 |
| YKSS | ≤ 0.25 |
| MRTR | ≤ 0.25 |
| RDAY | ≤ 0.25 |
| ELFI | ≤ 0.25 |
| RKDC | ≤ 0.25 |
| ISKH | ≤ 0.25 |
| AARL | ≤ 0.25 |
| PLLS | ≤ 0.25 |
| HTYQ | ≤ 0.25 |
| TQTV | 7.38 |

| Variant | enrichment ratio |
| --- | --- |
| RHEE | ≤ 0.25 |
| WPMR | ≤ 0.25 |
| DLGR | ≤ 0.25 |
| DYEC | ≤ 0.25 |
| HDIK | ≤ 0.25 |
| QNRG | ≤ 0.25 |
| HHFF | ≤ 0.25 |
| PLGS | ≤ 0.25 |
| YLLN | ≤ 0.25 |
| KKEH | ≤ 0.25 |
| NNVR | ≤ 0.25 |
| LCWE | ≤ 0.25 |
| DYFM | ≤ 0.25 |
| DFQD | ≤ 0.25 |
| GECY | ≤ 0.25 |
| WGAF | ≤ 0.25 |
| VGAL | 0.829 |
| GHHW | ≤ 0.25 |
| WVMS | ≤ 0.25 |
| EYYG | ≤ 0.25 |
| PEWK | ≤ 0.25 |
| PLVM | ≤ 0.25 |
| KAYK | ≤ 0.25 |
| APKK | ≤ 0.25 |

| Variant | enrichment ratio |
| --- | --- |
| DGSH | ≤ 0.25 |
| FELF | ≤ 0.25 |
| QTKF | ≤ 0.25 |
| NFVW | ≤ 0.25 |
| FHNY | ≤ 0.25 |
| LGLS | ≤ 0.25 |
| EKDK | ≤ 0.25 |
| FTFA | ≤ 0.25 |
| TRSS | 0.318 |
| TALS | 10.9 |
| TYTV | 0.992 |
| SHRT | ≤ 0.25 |
| DYPR | ≤ 0.25 |
| DLSP | ≤ 0.25 |
| RVRF | ≤ 0.25 |
| GKVK | ≤ 0.25 |
| FMCV | ≤ 0.25 |
| HFMN | ≤ 0.25 |
| LMAK | ≤ 0.25 |
| IVCV | ≤ 0.25 |
| AIFH | ≤ 0.25 |
| YPCK | ≤ 0.25 |
| VCEK | ≤ 0.25 |
| VDNV | ≤ 0.25 |

| Variant | enrichment ratio |
| --- | --- |
| CQFM | ≤ 0.25 |
| AQEM | ≤ 0.25 |
| WYEY | ≤ 0.25 |
| NYPF | ≤ 0.25 |
| KTSG | ≤ 0.25 |
| NMTW | ≤ 0.25 |
| NSYI | ≤ 0.25 |
| IHTI | ≤ 0.25 |
| DAIR | ≤ 0.25 |
| YRHW | ≤ 0.25 |
| GAPL | ≤ 0.25 |
| WRQK | ≤ 0.25 |
| LNLM | ≤ 0.25 |
| QNYP | ≤ 0.25 |
| HNKM | ≤ 0.25 |
| LVSF | ≤ 0.25 |
| VSQT | ≤ 0.25 |
| WRHQ | ≤ 0.25 |
| NHAN | ≤ 0.25 |
| ENAP | ≤ 0.25 |
| PIGH | ≤ 0.25 |
| YTHF | ≤ 0.25 |
| VHFT | ≤ 0.25 |
| TNLR | 0.738 |

| Variant | enrichment ratio |
| --- | --- |
| FSKF | ≤ 0.25 |
| ELKL | ≤ 0.25 |
| STRD | ≤ 0.25 |
| PFRD | ≤ 0.25 |
| IVNN | ≤ 0.25 |
| RVHQ | ≤ 0.25 |
| WLNQ | ≤ 0.25 |
| TCHL | 8.17 |
| WDVD | ≤ 0.25 |
| FFSS | ≤ 0.25 |
| NGDD | ≤ 0.25 |
| IHYD | ≤ 0.25 |
| AFGD | ≤ 0.25 |
| DNCY | ≤ 0.25 |
| YDLG | ≤ 0.25 |
| LAYW | ≤ 0.25 |
| MQFS | 3.3 |
| VQWR | ≤ 0.25 |
| PFMI | ≤ 0.25 |
| WGMW | ≤ 0.25 |
| TQTL | 9.51 |
| VHPQ | ≤ 0.25 |
| RFGW | ≤ 0.25 |
| WDGC | ≤ 0.25 |

| Variant | enrichment ratio |
| --- | --- |
| GITL | 7.35 |
| INYV | ≤ 0.25 |
| IMRH | ≤ 0.25 |
| AGRF | ≤ 0.25 |
| AQAY | 15.2 |
| ASMC | 12.1 |
| MQLS | 6.18 |
| WKSV | ≤ 0.25 |
| QYTP | ≤ 0.25 |
| NTWT | ≤ 0.25 |
| LQWV | ≤ 0.25 |
| FQRT | ≤ 0.25 |
| KASI | ≤ 0.25 |
| SAGD | ≤ 0.25 |
| WNAR | ≤ 0.25 |
| MNVY | ≤ 0.25 |
| NFRI | ≤ 0.25 |
| IYKC | ≤ 0.25 |
| AHRK | ≤ 0.25 |
| PMQK | ≤ 0.25 |
| ITTF | ≤ 0.25 |
| MINI | ≤ 0.25 |
| ACMP | 1.45 |
| NHST | ≤ 0.25 |

| Variant | enrichment ratio |
| --- | --- |
| AQYV | ≤ 0.25 |
| QKHP | ≤ 0.25 |
| YLAY | 0.285 |
| PLLC | ≤ 0.25 |
| CRSL | ≤ 0.25 |
| DLGM | 1.55 |
| KNFC | ≤ 0.25 |
| LTTQ | ≤ 0.25 |
| AEDS | ≤ 0.25 |
| HMPM | ≤ 0.25 |
| GEVY | 15.9 |
| EFCR | ≤ 0.25 |
| ESCK | ≤ 0.25 |
| FWAE | ≤ 0.25 |
| VPEG | ≤ 0.25 |
| KPNP | ≤ 0.25 |
| IGNY | ≤ 0.25 |
| LMRN | ≤ 0.25 |
| PGLK | ≤ 0.25 |
| VRHS | ≤ 0.25 |
| APMP | ≤ 0.25 |
| DVGF | ≤ 0.25 |
| TTAH | 8.28 |
| LKKD | ≤ 0.25 |

| Variant | enrichment ratio |
| --- | --- |
| MDTA | ≤ 0.25 |
| KAAL | 1.81 |
| KHDA | ≤ 0.25 |
| RTHV | ≤ 0.25 |
| IIVY | ≤ 0.25 |
| DNGL | ≤ 0.25 |
| NPVW | ≤ 0.25 |
| AHMH | ≤ 0.25 |
| MHRS | ≤ 0.25 |
| CQTP | ≤ 0.25 |
| LWNS | ≤ 0.25 |
| IYCN | ≤ 0.25 |
| QFFH | ≤ 0.25 |
| NKCY | ≤ 0.25 |
| IQML | ≤ 0.25 |
| EGIY | ≤ 0.25 |
| YYHD | ≤ 0.25 |
| LHWC | ≤ 0.25 |
| VAFQ | 0.889 |
| VFQK | ≤ 0.25 |
| EKVT | ≤ 0.25 |
| HWEE | ≤ 0.25 |
| YDRI | ≤ 0.25 |
| WSFL | ≤ 0.25 |

| Variant | enrichment ratio |
| --- | --- |
| EAWR | ≤ 0.25 |
| TFFF | ≤ 0.25 |
| GHWD | ≤ 0.25 |
| WNEG | ≤ 0.25 |
| DVKG | ≤ 0.25 |
| GVST | ≤ 0.25 |
| RKMT | ≤ 0.25 |
| YLVT | ≤ 0.25 |
| NINC | ≤ 0.25 |
| NFWV | ≤ 0.25 |
| WVQR | ≤ 0.25 |
| AKEF | ≤ 0.25 |
| IWAG | ≤ 0.25 |
| SEKD | ≤ 0.25 |
| EPDC | ≤ 0.25 |
| GDKP | ≤ 0.25 |
| TDTY | ≤ 0.25 |
| TQCH | 9.18 |
| FMYN | ≤ 0.25 |
| RCWN | ≤ 0.25 |
| YARD | ≤ 0.25 |
| FDID | ≤ 0.25 |
| RDPY | ≤ 0.25 |
| RMVG | ≤ 0.25 |

| Variant | enrichment ratio |
| --- | --- |
| PWDN | ≤ 0.25 |
| GVLL | 10.7 |
| AGAY | 7.02 |
| WRFS | ≤ 0.25 |
| SLGV | ≤ 0.25 |
| YIGL | 0.339 |
| KDTH | ≤ 0.25 |
| QHQY | ≤ 0.25 |
| VDMR | ≤ 0.25 |
| LNYR | ≤ 0.25 |
| SMCF | 7.74 |
| GCTN | ≤ 0.25 |
| LVHK | ≤ 0.25 |
| GLNF | ≤ 0.25 |
| PEIG | ≤ 0.25 |
| EIFF | ≤ 0.25 |
| VWSQ | ≤ 0.25 |
| QFQR | ≤ 0.25 |
| FYKM | ≤ 0.25 |
| ICIF | ≤ 0.25 |
| VGFY | ≤ 0.25 |
| SASM | 10.2 |
| VNED | ≤ 0.25 |
| VPSA | ≤ 0.25 |

| Variant | enrichment ratio |
| --- | --- |
| GEMS | 4.64 |
| SAEF | ≤ 0.25 |
| NMDL | ≤ 0.25 |
| IGVE | ≤ 0.25 |
| MMLQ | ≤ 0.25 |
| RCWS | ≤ 0.25 |
| TYIT | ≤ 0.25 |
| TRYT | ≤ 0.25 |
| LNHA | ≤ 0.25 |
| DHEM | ≤ 0.25 |
| ENMC | ≤ 0.25 |
| NNQS | ≤ 0.25 |
| KLCV | ≤ 0.25 |
| AMRS | ≤ 0.25 |
| PMKA | ≤ 0.25 |
| GLPA | 0.356 |
| RAFI | ≤ 0.25 |
| IRGD | ≤ 0.25 |
